# Experimental data reported in paper PMC4336329 (PLoS ONE, 2015).
# The campaign covered roughly 310,000 compounds. About 2,200 (0.71%) showed an effect of 50% or more. The effect is printed as a negative number. This is one part of the list.
# Biological target: human ether-à-go-go-related gene (hERG) potassium channel (human, UniProt Q12809)
# Experiment: primary screen, population patch clamp on CHO cells stably expressing hERG
# human ether-à-go-go-related gene (hERG) potassium channel, sequence (Q12809 whole entry, looked up): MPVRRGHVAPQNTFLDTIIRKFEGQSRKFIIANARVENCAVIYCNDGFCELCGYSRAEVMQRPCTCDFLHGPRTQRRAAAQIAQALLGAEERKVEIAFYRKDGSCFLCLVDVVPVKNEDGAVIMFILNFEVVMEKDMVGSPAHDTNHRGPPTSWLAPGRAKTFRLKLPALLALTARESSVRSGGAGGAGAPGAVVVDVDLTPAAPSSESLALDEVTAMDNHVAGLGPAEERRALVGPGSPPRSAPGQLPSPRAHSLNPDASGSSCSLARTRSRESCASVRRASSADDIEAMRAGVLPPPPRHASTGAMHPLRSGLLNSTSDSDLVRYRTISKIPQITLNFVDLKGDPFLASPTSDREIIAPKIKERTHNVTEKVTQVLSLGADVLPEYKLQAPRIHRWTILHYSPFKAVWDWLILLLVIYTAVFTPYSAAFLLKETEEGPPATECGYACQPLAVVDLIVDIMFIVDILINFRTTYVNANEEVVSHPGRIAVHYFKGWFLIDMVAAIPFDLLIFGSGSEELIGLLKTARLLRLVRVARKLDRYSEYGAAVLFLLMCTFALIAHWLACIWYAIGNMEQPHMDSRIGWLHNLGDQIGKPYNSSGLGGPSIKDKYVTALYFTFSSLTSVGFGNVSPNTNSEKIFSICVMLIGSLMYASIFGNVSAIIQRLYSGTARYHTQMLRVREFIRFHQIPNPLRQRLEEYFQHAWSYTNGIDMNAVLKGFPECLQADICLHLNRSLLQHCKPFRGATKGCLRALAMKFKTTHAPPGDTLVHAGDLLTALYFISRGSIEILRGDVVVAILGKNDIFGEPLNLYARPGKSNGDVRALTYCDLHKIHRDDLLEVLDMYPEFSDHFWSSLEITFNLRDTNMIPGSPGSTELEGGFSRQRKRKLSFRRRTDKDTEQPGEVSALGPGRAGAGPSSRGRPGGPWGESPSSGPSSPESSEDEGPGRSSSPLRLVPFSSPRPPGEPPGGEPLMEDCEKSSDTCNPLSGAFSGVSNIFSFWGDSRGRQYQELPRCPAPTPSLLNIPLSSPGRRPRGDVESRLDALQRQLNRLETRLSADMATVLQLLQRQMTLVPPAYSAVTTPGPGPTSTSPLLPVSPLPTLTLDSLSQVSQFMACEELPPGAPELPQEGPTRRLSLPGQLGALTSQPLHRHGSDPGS
row,SMILES,"hERG current change (%, negative = inhibition) at 1uM [%]"
1,COC(=O)C1=C(c2ccc(F)cc2F)C[C@@H]2CC[C@H]1N2C(=O)N1CCCCC1,9.38
2,COc1ccc(N(CC(=O)N2CCCC2)S(=O)(=O)c2ccc(NC(C)=O)cc2)cc1,10.7
3,Oc1ccc(/C=N/Nc2ccc(Cl)nn2)cc1O,6.44
4,CCN1C(=O)[C@H]2[C@@H](c3ccc(C)cc3)N3C(=O)N(c4cccc(Cl)c4)C(=O)[C@@]3(Cc3ccc(Cl)cc3)[C@H]2C1=O,7.88
5,O=C(N[C@H](CO)Cc1ccccc1)c1ccco1,9.98
6,CCOc1ccc(S(=O)(=O)NCCC(=O)N2CCN(c3ncccn3)CC2)cc1,6.1
7,O=[N+]([O-])c1cnc(Nc2ccc(Cl)cn2)c([N+](=O)[O-])c1,10.2
8,CCOc1cc(/C=C2\CCC/C(=C\c3cc(Cl)c(O)c(OCC)c3)C2=O)cc(Cl)c1O,10
9,CCO[C@@H]1OC(C(N)=O)=C[C@H](c2ccc(C(F)(F)F)cc2)[C@H]1CCCO,9.38
10,COc1ccc(N2CCN(S(=O)(=O)c3c(C)nc4scc(C)n4c3=O)CC2)cc1,7.01
11,COC(=O)c1ccccc1N=Cc1c(O)[nH]c(=O)[nH]c1=O,5.64
12,C#CCOCCOCCOCCNc1nc(N2CCN(C(=O)Cn3cc(CCC[NH+]=C(N)N)nn3)CC2)nc(N2CCN(C(=O)[C@H](CCCC[NH3+])n3cc(CC(C)O)nn3)CC2)n1.[Cl-] (stereo partly drawn),22.6
13,CCOC(=O)C(Cc1ccccc1)C(=O)Nc1nccs1 (stereo not drawn),5.87
14,O=C(O)c1ccccc1NS(=O)(=O)c1ccc2ccccc2c1,19.4
15,Cc1cc(=O)oc2cc(OCC(=O)N3CCN(C(=O)C4COc5ccccc5O4)CC3)ccc12 (stereo not drawn),0.205
16,CCOc1ccc2nc(SCC(=O)NCc3ccc4c(c3)OCO4)[nH]c2c1,-7.38
17,O=C(COC(=O)c1ccc(S(=O)(=O)Nc2ccccc2)cc1)NCC1CCCO1 (stereo not drawn),8.89
18,CC(C)(C)N1CSC(=S)N(Cc2ccccc2)C1,9.11
19,CCOc1ccc(CCNC(=O)COC(=O)Cc2ccc(OC)c(OC)c2)cc1OCC,11.3
20,Cn1cncc1C#Cc1ccc2cc(C(C)(C)O)oc(=O)c2c1,15.6
21,Cc1ccc(C(=O)NC(C)c2ccccc2)cc1S(=O)(=O)N1CCOCC1 (stereo not drawn),0.385
22,Cc1cccc(C(C)C)c1NC(=O)COC(=O)COc1ccc2c(C)cc(=O)oc2c1,17.2
23,O=C(NCCCn1ccnc1)C(=O)NC1CCCCC1,4.36
24,CC1CCCN(c2c3c(nc4ccccc24)CCCC3)C1 (stereo not drawn),-12.7
25,COc1ccccc1N(CN1CCCC1=O)C(=O)c1c(F)cccc1Cl,2.96
26,CCOc1ccc2[nH]cc(S(=O)(=O)c3ccc(C)cc3)c(=O)c2c1,8.2
27,CCOc1cc(Br)c(COc2ccc(C)nc2[N+](=O)[O-])cc1OCC,17.9

row,SMILES,"hERG current change (%, negative = inhibition) at 1uM [%]"
1,Cc1ccccc1NC(=O)CC(C)S(=O)(=O)c1ccc2c(c1)NC(=O)CO2 (stereo not drawn),-5.76
2,Cc1ccc(O)c(C(=O)c2cc(C#N)c(=O)n(C(C)c3ccccc3)c2)c1 (stereo not drawn),7.69
3,COc1cccc(N=Nc2c(O)[nH]c(=S)[nH]c2=O)c1,9.36
4,COc1ccc(C(=O)NC2CC(C)(C)Cc3c2cnn3-c2ccccc2)c(OC)c1 (stereo not drawn),12.8
5,O=C(CCN1C(=O)c2ccccc2C1=O)C1=NN[C@@H]2C(=O)N(c3ccc4c(c3)OCCO4)C(=O)[C@H]12,7.8
6,O=C(O)/C=C/C(=O)NCCc1cccc(Cl)c1,6.17
7,CC(=O)NS(=O)(=O)c1ccc(NC(=O)/C=C/c2ccc(C)o2)cc1,11.8
8,CCCCn1c(SCC(=O)c2ccc3c(c2)NC(=O)CO3)nc2cc(S(N)(=O)=O)ccc21,14.4
9,CC1CCCC(N2C(=O)NC(NC(=O)c3ccco3)(C(F)(F)F)C2=O)C1C (stereo not drawn),7.8
10,O=C(O)c1ccc(COc2ccccc2[N+](=O)[O-])o1,13.1
11,COc1ccc(/C=C(\C#N)C(=O)OCC(=O)NC(=O)NCCC(C)C)cc1,7.16
12,Cn1cccc1/C=N/NC(=O)c1ccn[nH]1,8.24
13,Cc1cc2c(cc1C)N(Cc1ccc(Cl)cc1)C1=NCCCN12,-28.4
14,CS(=O)(=O)c1[nH]nc(-c2ccccc2)c1C#N,13.2
15,CCOc1ccc(C(=O)Nc2cccc(SC)c2)cc1,4.95
16,CC(=O)Oc1ccc2c(=O)c(Oc3ccccc3)coc2c1OC(C)=O,12.6
17,Cc1ccccc1NC(=S)NC(NC(=O)C(C)(C)C)C(Cl)(Cl)Cl (stereo not drawn),-14.3
18,Cc1ccc(N2CC(C(=O)NCCS(=O)(=O)N3CCN(c4ccc(F)cc4)CC3)CC2=O)cc1 (stereo not drawn),6.63
19,CCCCCCc1c(O)nc(SCCN2CCOCC2)[nH]c1=O.Cl,5.78
20,N#Cc1c(N)sc2c1CCCCCC2,2.12
21,CNC(=S)N/N=C/c1c(C)nn(-c2ccccc2)c1Cl,1.87
22,CC(C)N1CCN(S(=O)(=O)c2ccccc2)CC1.O=C(O)C(=O)O,9.1
23,Cc1ccc(NC(=O)c2ccc(C#CC3(O)CCCCC3)cc2)cc1C,6.93
24,COc1ccc(CN=C2NN=C(c3ccc(Cl)cc3)CS2)cc1,10.2
25,O=C(Nc1ccc2c(c1)OCO2)C(c1ccccc1)N1CCCCC1 (stereo not drawn),8.78
26,CCOc1ccc(C2c3[nH]c4ccccc4c3CCN2Cc2cccn2-c2ncccn2)cc1 (stereo not drawn),-12.3
27,COCCn1c(SCC(=O)NCCc2ccc(OC)c(OC)c2)nc2c([nH]c3ccccc32)c1=O,7.66
